The list shows a part of the results. Sequences were assembled here from the parent chain. Inactive controls read about 0.05.
B1: TEV protease; numbered along this chain (parent)
chain: MGESLFKGPRDYNPISSSICHLTNESDGHTTSLYGIGFGPFIITNKHLFRRNNGTLVVQSLHGVFKVKDTTTLQQHLVDGRDMIIIRMPKDFPPFPQKLKFREPQREERICLVTTNFQTKSMSSMVSDTSCTFPSGDGIFWKHWIQTKDGQCGSPLVSTRDGFIVGIHSASNFTNTNNYFTSVPKNFMELLTNQEAQQWVSGWRLNADSVLWGGHKVFMVKPEEPFQPVKEATQL

Variants of: B1
Experiment: raw area under fraction-flipped curve 0-4 h after induction (AUC4h, not background-subtracted), DNA-recorder readout of cleavage of the substrate (dimensionless); higher = more cleavage of the substrate by the protease variant
Settings: temperature: 34 °C; time window: 0-4 h after rhamnose induction
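Also: Bxb1 expression induced with 0.2% (w/v) L-rhamnose at OD600 near 0.5, cultures sampled hourly, flipped fraction per protease–substrate barcode pair counted by paired-end Illumina sequencing.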

Variant	area with substrate ENCYFQS	area with substrate ENEYFQS	area with substrate ENFYFQS	area with substrate ENGYFQS	area with substrate ENIYFQS	area with substrate ENMYFQS	area with substrate ENNYFQS	area with substrate ENQYFQS	area with substrate ENVYFQS	area with substrate ENYYFQS	area with substrate ENDYFQS	area with substrate ENKYFQS	area with substrate ENRYFQS	area with substrate ENTYFQS	area with substrate ENWYFQS	area with substrate ENHYFQS	area with substrate ENSYFQS	area with substrate ENPYFQS
K216L	0.0731	0.0829	0.0505	0.061	0.0507	0.065	0.0646	0.0705	0.07	0.101								
M125L	0.0589	0.0538	0.0633	0.0397	0.116			0.104	0.0739	0.0772	0.0695	0.065	0.0711	0.0616	0.0475			
G136P	0.0637	0.0613		0.0619			0.0431		0.0609		0.0801					0.0716	0.0525	
Q151H	0.0688	0.0419	0.0575	0.0665			0.0642	0.0654	0.0633	0.0564	0.0583	0.0604		0.0353	0.0626			
S121Y	0.0787		0.051				0.0645		0.0823					0.0437		0.0592		0.0554
V210K	0.0694	0.0596	0.0571	0.066	0.0836	0.0496	0.0788	0.0665	0.0509	0.0704		0.0631	0.0504	0.0611	0.0139	0.0518		
T176L	0.0576	0.0585	0.0568			0.0454	0.0632	0.0489		0.0529	0.0601	0.0567	0.0298		0.0555	0.0395	0.0593	0.0613
I139Q	0.0527	0.0569	0.0679	0.0627			0.066	0.0766	0.0624	0.0456	0.0557	0.0038	0.0517				0.0974	0.0623
M188T	0.0683	0.0713	0.0744	0.0761		0.0788		0.056	0.0725	0.0534	0.0713			0.0704	0.0671	0.0596		0.0658
Q146N	0.08	0.0688	0.0746	0.0682			0.0714		0.0865			0.0553	0.0597	0.0682		0.0769	0.0629	0.0488
Q118H	0.0554	0.0361						0.0616			0.0612			0.054	0.0381			0.0455
S158H	0.0765	0.0557	0.0568	0.0462	0.06		0.0577	0.0643	0.0477	0.0466	0.0471			0.0627	0.05	0.0519	0.0595	0.0441
P225T	0.0767	0.0694				0.0877	0.0593	0.0708	0.0767	0.0626	0.0596			0.0489		0.0513	0.0578	0.0624
E223F	0.0641	0.0534	0.0658		0.0814	0.0709	0.0581	0.065	0.079	0.0554	0.0878	0.0521		0.0494			0.0625	
T132Y	0.0546	0.052	0.0432	0.008	0.0379	0.045	0.0573	0.0609	0.0611		0.0555	0.0445	0.0635	0.0432			0.0555	0.0778
E195C	0.0789					0.0859		0.0701		0.0506	0.0546	0.048	0.057	0.0433	0.0449		0.0634	0.055

Variant	area with substrate ENCYFQS	area with substrate ENEYFQS	area with substrate ENFYFQS	area with substrate ENGYFQS	area with substrate ENIYFQS	area with substrate ENMYFQS	area with substrate ENNYFQS	area with substrate ENQYFQS	area with substrate ENVYFQS	area with substrate ENYYFQS	area with substrate ENDYFQS	area with substrate ENKYFQS	area with substrate ENRYFQS	area with substrate ENTYFQS	area with substrate ENWYFQS	area with substrate ENHYFQS	area with substrate ENSYFQS	area with substrate ENPYFQS
G213S	0.0792				0.0879			0.0333	0.0596	0.054	0.0632		0.0623	0.0671		0.054		
G214M	0.0584			0.028			0.0509	0.0522		0.0587		0.0603	0.053	0.0654	0.0484	0.0651		
G214K	0.0846	0.0501	0.0719	0.0641		0.0658	0.0579	0.0575	0.0683	0.0471	0.065	0.0709		0.0783	0.0453	0.0601	0.0565	0.0742
P155F	0.0541	0.0555	0.0578	0.0415	0.0535	0.0504		0.0731			0.0619		0.0524	0.0564	0.0435		0.0513	
F218G	0.0777	0.0553	0.0584							0.0647				0.0539		0.0504		
F218S	0.0828			0.0455	0.0977		0.0652	0.0648	0.0318		0.0717		0.0484			0.0522		
V183I	0.0555	0.0633	0.0607			0.0704		0.0577			0.0715		0.0829	0.0636	0.0403		0.0632	0.0592
L205F	0.0569			0.0778					0.0059	0.0554	0.0521						0.0599	
W144L	0.0659	0.069					0.0717	0.0617	0.0674		0.0757			0.0685	0.0476	0.066		
P222G	0.071	0.0827	0.0401	0.043	0.112		0.0814	0.0469	0.0689	0.0634	0.07	0.0595	0.0692		0.0708	0.0555	0.0623	
G138Q	0.0521								0.0622	0.0442		0.051						
N178I	0.071	0.0563		0.0623			0.051	0.0606					0.0586				0.0455	
G202N	0.067	0.0685				0.0431	0.0659	0.0621	0.0896		0.0591	0.0651	0.0585		0.0512	0.0537	0.0672	
G202S	0.0592	0.0618		0.0693				0.0629	0.0779		0.0706	0.0651	0.0534	0.0574		0.0734	0.052	
Q194S	0.0854	0.0495	0.0701		0.107		0.0563	0.057	0.0907	0.0764	0.045	0.0518		0.0654		0.0596	0.038	
